Assay results reported in patent US10787442B2, “Modulators of indoleamine 2,3-dioxygenase” (GLAXOSMITHKLINE INTELLECTUAL PROPERTY DEVELOPMENT LIMITED, priority 2016, dated 2020).

Target: indoleamine 2, 3-dioxygenase (IDO1) (Homo sapiens, UniProt P14902)
Experiment: IDO1 PBMC RapidFire MS Assay (kynurenine by mass spectrometry)
Format: cell-based
Conditions: human PBMC stimulated with IFN-γ and LPS, 2 days; recorded as pIC50; read-out: IDO1 PBMC PXC50 (converted)

UniProt P14902, sequence (P14902 whole entry): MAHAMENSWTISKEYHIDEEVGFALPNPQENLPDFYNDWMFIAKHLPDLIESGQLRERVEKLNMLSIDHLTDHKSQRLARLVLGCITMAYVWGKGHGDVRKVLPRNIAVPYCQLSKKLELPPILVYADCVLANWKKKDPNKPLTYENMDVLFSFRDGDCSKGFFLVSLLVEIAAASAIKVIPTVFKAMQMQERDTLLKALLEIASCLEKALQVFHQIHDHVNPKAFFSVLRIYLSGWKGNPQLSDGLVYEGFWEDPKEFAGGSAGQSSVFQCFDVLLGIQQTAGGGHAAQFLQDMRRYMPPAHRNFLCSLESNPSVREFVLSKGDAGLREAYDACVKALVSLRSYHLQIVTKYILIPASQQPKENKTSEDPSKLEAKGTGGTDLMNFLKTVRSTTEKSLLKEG

Structure (SMILES)	IC50 [nM]
CC(C)CN(c1ncc([C@H](C)CC(=O)NO)cc1Nc1ccc(Cl)cn1)C1CCOCC1 [Example 78, (3R)-3-{5-[(5-chloropyridin-2-yl)amino]-6-[(2-methylpropyl)(oxan-4-yl)amino]pyridin-3-yl}-N-hydroxybutanamide]	158
CC(C)CN(c1ncc([C@H](C)CC(=O)NS(C)(=O)=O)cc1Nc1ccc(Cl)cn1)C1CCOCC1 [Example 79, (3R)-3-{5-[(5-chloropyridin-2-yl)amino]-6-[(2-methylpropyl)(oxan-4-yl)amino]pyridin-3-yl}-N-methanesulfonylbutanamide]	25.1
CC(C)CN(c1ncc([C@H](C)CC(=O)NS(=O)(=O)N(C)C)cc1Nc1ccc(Cl)cn1)C1CCOCC1 [Example 80, (3R)-3-{5-[(5-chloropyridin-2-yl)amino]-6-[(2-methylpropyl)(oxan-4-yl)amino]pyridin-3-yl}-N-(dimethylsulfamoyl)butanamide]	12.6
CC(C)CN(c1ncc([C@H](C)CC(=O)O)cc1Nc1nc(Cl)ns1)C1CC(F)(F)C1 [Example 81]	20
CC(C)CN(c1cnc([C@H](C)CC(=O)O)cc1Nc1ccc(Cl)cn1)C1CCOCC1 [Example 82, (3R)-3-{4-[(5-chloropyridin-2-yl)amino]-5-[(2-methylpropyl)(oxan-4-yl)amino]pyridin-2-yl}butanoic acid]	7.94
C[C@H](CC(=O)O)c1cnc(N(CCCCCN)C2CCOCC2)c(Nc2ccc(Cl)cn2)c1 [Example 83, (3R)-3-{6-[(5-aminopentyl)(oxan-4-yl)amino]-5-[(5-chloropyridin-2-yl)amino]pyridin-3-yl}butanoic acid]	> 10000
C[C@H](CC(=O)O)c1cnc(N(CCCCCNC(=O)OC2CC/C=C/CCC2)C2CCOCC2)c(Nc2ccc(Cl)cn2)c1 (stereo partly drawn) [Example 84, (3R)-3-{5-[(5-chloropyridin-2-yl)amino]-6-{[5-({[(4E)-cyclooct-4-en-1-yloxy]carbonyl}amino)pentyl](oxan-4-yl)amino}pyridin-3-yl}butanoic acid]	126
